Assay results reported in the supplement of paper PMC10338343.
± gives the standard deviation. This is a selection; strong and weak results do not stand in their true shares.

Tested on: MIWI (PIWIL1) piRISC loaded with L1MC piRNA (30 nt)
Experiment: pre-steady-state target cleavage rate (min^-1); MIWI and MILI are mouse PIWI proteins and EfPiwi is from a freshwater sponge; tags in brackets are library labels; higher = faster piRNA-guided slicing of the target
Settings: guide: L1MC piRNA 5'p-UAACUAAAUACUAUGCAAGCUGUAGGUCCU; auxiliary factor: 500 nM mouse GTSF1
Method in brief: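 The pre-steady-state cleavage rate was derived from a burst-and-steady-state fit of Cleave-'n-Seq data. For these assays, 1 nM active affinity-purified piRISC loaded with a single synthetic guide was mixed with […] a transcribed, DNA-blocked target RNA library in HEPES–potassium acetate buffer at 33 °C, with or without 500 nM GTSF1 partner protein, for 0–8 or 0–960 min. Sequencing counts of uncleaved targets were normalised to depth and to weakly complementary targets, and k3 was capped at 0.0001 min^-1 after three trials were pooled.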
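Also: 1 nM active piRISC with 0.1 nM target library at 33 °C single turnover.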

| Sequence | pre-steady-state target cleavage rate |
| --- | --- |
| UCCUGGAUGAGCUUGCAUAGUAUUAUGUAA | 0.00793 ± 0.0045 |
| UCCUCCUACAGCUUGCAUAGUAAAAUCAAA | 0.159 ± 0.041 |
| UCCUGGAUGUCGUUGCAUAGUAUUUAGUGUA | 0.00426 ± 0.0033 |
| UCCUGCUACACCUUGCAUAGUAUUUUCAAA | 0.205 ± 0.051 |
| UCCUGCUACACGUUGCAUAGUAUUUACAAA | 0.142 ± 0.024 |
| UGGACCUACAGCUUCCAUAGUUUUUAGUUA | 0.00643 ± 0.0024 |
| UGGACCUACAGCUUGCAUAGUUAAUAGAAA | 0.0323 ± 0.01 |
| UCCACCUACAGCUUGCAUAGUAAAAACAAA | 0.172 ± 0.043 |
| UCCUGCUACAGCUACCAUAGUAUUUAGUAA | 0.189 ± 0.034 |
| UGGACCUACAGCUACCAUAGUAUUUACAAA | 0.00304 ± 0.0028 |
| UCCACCUACAGCUUGCAUACUAUUUACAAA | 0.176 ± 0.031 |
| UCCUGCUACAGCUUGCAUAGUAAAUACAAA | 0.0807 ± 0.028 |
| UCCUGCUACAGCUUGCAUAGUAUUUUGAAA | 0.26 ± 0.041 |
| UCCUGGAACAGCUUGCAUAGUAUAAUGUAA | 0.0909 ± 0.025 |
| UCCACCUACAGCAUGCAUAGUAUUUAGAAA | 0.462 ± 0.065 |
| AGGACCUACAGCUUGCAUAGUAAAAAGAAA | 0.359 ± 0.088 |
| UCCACCUACACCUUGCAUAGUAUUUUCAAA | 0.285 ± 0.042 |
| UCCUCCUACAGCUUGGUUAGUAUUUAGAAA | 0.172 ± 0.029 |
| UCCUGCUACACGUUGCAUAGUAUUUAGAAA | 0.109 ± 0.022 |
| UCCUGCUACAGCAUGCAUAGUAUUUUCAAA | 0.267 ± 0.074 |

| Sequence | pre-steady-state target cleavage rate |
| --- | --- |
| UCCUGGAACAGCUUCCAUUGUAUUUAGUUA | 0.112 ± 0.015 |
| UCCUGGUACAGCUUGACAUAGUAUUUAGUUA | 0.271 ± 0.027 |
| UCCUCCUACAGCUUCCAUAGUAUUUUGUUA | 0.0326 ± 0.013 |
| UCCUGCUACAGCUUGCAUACUAUUUACAAA | 0.21 ± 0.043 |
| UCGACCUACAGGUUCCAUAGUAUUUAGUUA | 0.0899 ± 0.027 |
| UCCUGGAUGUCGAACCAUAGUAUUUAGUCA | < 0.0001 |
| UCCACCUACAGCUUGCAUAGUUUUUACAAA | 0.193 ± 0.032 |
| UCCUCCUACAGCAUGCAUAGUAUUUAGAAA | 0.485 ± 0.066 |
| UCGACCUACAGCUUGCAUACAAUUUAGUAA | 0.0421 ± 0.018 |
| UCCUGCUACACGAUGCAUAGUAUUUACAAA | 0.0817 ± 0.025 |
| UCCUGGAUGUCCUUGCAUUGUAUUUAGAUA | 0.00414 ± 0.0039 |
| UCCACCUACAGCAACCAUAGUAUUUAGUAA | 0.074 ± 0.015 |
| UCCUGGUACAGCUUGCAUAGUAUAUAGAAA | 0.343 ± 0.077 |
| UCCUGCUACUCGUUGCAUAGUAUUUACAAA | 0.0303 ± 0.0091 |
| UCCUGGAUGUCCUUGCAUACUUUUUAGUUA | 0.00472 ± 0.0041 |
| UCCUGCUACAGCUUGCAUACAAUUUAGUUA | 0.0161 ± 0.0063 |
| UCGACCUACAGCUUGCAUUCAAUUUAGUUA | 0.0128 ± 0.006 |
| AGGACCUACAGGAUGCAUAGUAUUUUCAAA | 0.319 ± 0.048 |
| UCCUGGAUGUCGAACGUUAGCUAUUUAGUUA | < 0.0001 |
| UCCUGGAUGUCGUUGCAUAGUAUUUAGUAA | 0.00556 ± 0.0034 |
